Test results as given in the supplement of paper PMC3334620.
Whole data set: some 33,000 sequences, median “E-score (-0.5 to 0.5)” near -0.04, cut for the highest 2% near 0.36. The list shows a part of the results.

target: T1, Hmlalpha2 (UniProt P0CY09); assay: PBM E-score (8-mer binding enrichment) (E-score (-0.5 to 0.5)); higher = stronger / more preferred TF binding; most listed sequences are background and not binding sites; settings: protein concentration: 200 nM; construct: GST-full length
T1 sequence: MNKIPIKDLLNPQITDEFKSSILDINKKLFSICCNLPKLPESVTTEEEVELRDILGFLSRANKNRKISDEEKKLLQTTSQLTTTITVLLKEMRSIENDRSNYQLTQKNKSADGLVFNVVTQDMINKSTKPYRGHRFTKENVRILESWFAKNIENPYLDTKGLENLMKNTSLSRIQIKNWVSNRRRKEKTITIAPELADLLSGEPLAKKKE
Procedure, shortened: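 Universal all-10-mer Agilent arrays, double-stranded by primer extension on fresh or once-stripped slides, were probed with about 100-200 nM GST-tagged yeast transcription factors made by PURExpress. Fluorescent anti-GST detected bound protein, and masliner normalised the scans. E-scores from the Universal PBM Analysis Suite were given to each ungapped eight-base word pooled with its reverse complement.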

Sequence	PBM E-score
CATTGGGC	-0.211
ATCCTTCA	0.209
GACTTCAC	-0.0702
CGTCCACC	-0.24
AAAACAAT	0.249
CTCTCAAA	0.0696
CCACGTTC	-0.0393
ATAACAGC	0.254
TGAAGCCA	0.0489
AAGCTGGT	0.11
ATTGCTTG	0.102
GGTAAGGA	-0.0864
AAGTACCA	0.077
AGACTCCA	-0.265
TATAGGCA	-0.129
TAGTTGAA	0.0913
GTCCAAGA	-0.209
TCACGCCA	-0.00448
AATAATAA	0.311
GCGTTTTA	0.192
CACGATAC	0.127
AATTAAAT	0.13
CCATTTCC	0.00202
CAGCCGAG	-0.14
GTTCGACA	0.283

Sequence	PBM E-score
AAACAGAT	0.213
AGCTTTGG	-0.155
ACGTAATG	0.408
CTGTCTCA	-0.319
AGTGCGGA	-0.0409
AGGGCCAC	-0.049
CCGGCTCC	-0.369
CAATATCC	-0.142
ATCCCTGA	-0.143
AGGGTCCC	-0.257
CCGAAAAG	-0.0714
GCGAAGCC	-0.242
CTGTTTCA	0.0707
ATGGGAGA	-0.179
TAAACTTA	0.228
AGGCGCGG	-0.0549
GGAGAACC	-0.23
GTGCCAAC	0.0171
CAGAGCGC	-0.0746
AGATCCAT	-0.18
AAAATCGT	0.0614
CACGTCAA	0.185
AGATCTAT	0.0951
AATTGGTC	0.145
ATATCCAT	0.0625

Sequence	PBM E-score
AGCGTGAC	0.0851
CTCTTCCC	-0.154
CAGGAACC	-0.149
AGGAGGAA	0.0527
ACCCAAGT	0.0612
AACGATCG	0.0315
AACTAGTC	-0.0213
ATACTGGG	-0.184
ACGCCATG	0.167
AAGCTTGG	-0.289
CGCTGGTA	-0.0542
AACCACCT	-0.154
GCCAGGCA	-0.222
GTATGATA	0.287
ACGTCAAA	0.25
CACCCTTA	-0.117
AATATTAA	0.25
AGCCTAAT	-0.0707
CGGTCCAG	-0.224
AACAACGC	0.254
ATATATGA	0.108
CTTTCGTA	0.00759
ACGCTAGG	-0.174
GACGTACC	-0.0623
AGCTCTTG	-0.0127

Sequence	PBM E-score
ATTAAAGG	0.113
ACGGCGGC	-0.14
AGTGCTGA	-0.108
ACGAACCG	0.00216
CCCTTACC	-0.165
GAAACTTC	-0.121
CGGGTACC	-0.239
ATCCGTCC	-0.272
ATTTCCAC	0.069
GGAACGTA	0.0173
CGCGGAAG	-0.0872
GCATTGCC	-0.0338
AATAACTC	0.0959
AATAGTTC	0.151
ACCGGTGC	-0.25
CCCAGCCC	-0.389
CCGCTAAA	-0.175
AAGTATCG	0.154
GGATCCAA	-0.0601
TACGCGAA	0.332
CATGATGA	0.21
AGGCTAGG	-0.348
AAGGCGGT	-0.0706
CGATCATC	-0.0477
TTGCACAA	0.203

Sequence	PBM E-score
AGCATGTG	0.22
CAACAGGC	0.0114
AATCCAGT	-0.0636
TATTTCAA	0.188
CCTTAGGA	-0.169
AGGTCTTG	-0.13
AAGGGGGA	-0.232
ATTGTATA	0.171
CGGAGGAA	-0.0987
TGGCAACA	0.13
AAAGTTGC	-0.104
TACCGTCA	-0.193
TAGCTCAA	-0.0444
CGCCCAGA	-0.216
TGAGCGCA	-0.151
AGGGCCCC	-0.303
AGGGGTCC	-0.286
ACCGTTTG	-0.113
CCTGGCGA	-0.245
AAGGCGTG	-0.0975
GGCTTTGA	-0.146
CGACCCTC	-0.219
AACTAAGG	0.029
GACGCCCA	-0.255
AGGCGAAC	-0.0962

Sequence	PBM E-score
CTAATAAA	0.156
GAGAAGCA	-0.172
AGCTAACA	0.127
AGGCCAAT	-0.244
CCGTTAGG	-0.136
GAGAGGGA	-0.221
ATCCCTAC	-0.0149
CAATAGAC	0.0079
ACATCCCA	0.105
CGGGTCAA	-0.0612
CACCTTAA	-0.103
GTGTTGGA	0.224
TACGTAAA	0.41
GTCGACAC	0.267
CATCGTAC	0.0679
AATTATGG	0.05
TGGTCAAA	0.0883
CCAGCCCC	-0.239
TGTGAACA	0.276
GTCAGCGA	-0.185
ACGGGACG	-0.176
AATCAGGG	-0.316
GCACCCCA	-0.251
ATGAATTG	0.00136
ATATTCAG	0.106

Sequence	PBM E-score
ATGAGTCA	-0.0308
CCCACCAG	-0.143
AAATATGT	0.277
CAAGTCCG	-0.0826
AAAATACT	0.0699
ACATGCCC	0.323
AGGTCTAA	-0.0143
ACCACGGT	-0.134
CCCGTAGA	-0.3
ACAATCGC	0.159
AGACCTTA	0.00677
TATAATAA	0.225
AGATTACG	0.261
TTTCCAAA	0.00373
CCAATGGG	-0.394
GTTGATGA	0.113
CATTCTCA	0.0464
ACCTCACC	-0.149
TATATAAA	0.235
ACTCATGA	-0.0271
GATTTTGA	0.12
CACGGCCG	-0.0123
AATTTATG	0.237
AGGACGAC	-0.194
CATACGCA	0.198

Sequence	PBM E-score
GAGAGTTA	0.00013
CGAAAATA	0.144
ACTCGCGC	-0.0754
ATCTCTTC	-0.0365
CCATTACC	-0.0103
AGATCAGC	-0.177
AGGCAAGA	-0.0128
AAACTTAT	0.167
CATCCGCA	0.086
CGACGACG	-0.0668
CTTTATTA	0.185
TGGGTCAA	-0.195
CACGTTCC	0.0632
CATCTAGC	-0.0263
ACCGGTTC	-0.26
ATGAAGCG	-0.108
CGCGACGA	0.0277
CAAGCTAG	0.0741
CAAACACA	0.334
AGAGTAGA	0.0362
AGGTCGCC	-0.344
GCCTAGGA	-0.256
CTGCTTGC	-0.0894
CAATTGAG	-0.0077
ACACCCCG	-0.238

Sequence	PBM E-score
ACAGCACA	0.28
CGGCTTTA	-0.0882
GCCCCGCA	-0.218
ATCTGTAA	0.158
ACTTAGCT	-0.146
ACCTGTCT	-0.328
AACTAACG	0.185
TACGGCCA	-0.262
GCGAGAAC	-0.0962
GCATCCGA	-0.226
AGTCGACC	-0.251
ATGGGCAG	-0.259
CCAAACGA	-0.202
CCCGAAGA	-0.24
CGATCGGC	-0.12
GGACTAAA	-0.0757
AATCAGAG	-0.101
AAAGTCGC	0.101
GTAACACA	0.324
